We go through 25 molecules from publication PMC4336329 (PLoS ONE, 2015).

About 2,200 (0.71%) of roughly 310,000 compounds showed an effect of 50% or more. Effects have a minus sign here. Some of the results follow.

Sequence of human ether-à-go-go-related gene (hERG) potassium channel (Q12809 whole entry, looked up): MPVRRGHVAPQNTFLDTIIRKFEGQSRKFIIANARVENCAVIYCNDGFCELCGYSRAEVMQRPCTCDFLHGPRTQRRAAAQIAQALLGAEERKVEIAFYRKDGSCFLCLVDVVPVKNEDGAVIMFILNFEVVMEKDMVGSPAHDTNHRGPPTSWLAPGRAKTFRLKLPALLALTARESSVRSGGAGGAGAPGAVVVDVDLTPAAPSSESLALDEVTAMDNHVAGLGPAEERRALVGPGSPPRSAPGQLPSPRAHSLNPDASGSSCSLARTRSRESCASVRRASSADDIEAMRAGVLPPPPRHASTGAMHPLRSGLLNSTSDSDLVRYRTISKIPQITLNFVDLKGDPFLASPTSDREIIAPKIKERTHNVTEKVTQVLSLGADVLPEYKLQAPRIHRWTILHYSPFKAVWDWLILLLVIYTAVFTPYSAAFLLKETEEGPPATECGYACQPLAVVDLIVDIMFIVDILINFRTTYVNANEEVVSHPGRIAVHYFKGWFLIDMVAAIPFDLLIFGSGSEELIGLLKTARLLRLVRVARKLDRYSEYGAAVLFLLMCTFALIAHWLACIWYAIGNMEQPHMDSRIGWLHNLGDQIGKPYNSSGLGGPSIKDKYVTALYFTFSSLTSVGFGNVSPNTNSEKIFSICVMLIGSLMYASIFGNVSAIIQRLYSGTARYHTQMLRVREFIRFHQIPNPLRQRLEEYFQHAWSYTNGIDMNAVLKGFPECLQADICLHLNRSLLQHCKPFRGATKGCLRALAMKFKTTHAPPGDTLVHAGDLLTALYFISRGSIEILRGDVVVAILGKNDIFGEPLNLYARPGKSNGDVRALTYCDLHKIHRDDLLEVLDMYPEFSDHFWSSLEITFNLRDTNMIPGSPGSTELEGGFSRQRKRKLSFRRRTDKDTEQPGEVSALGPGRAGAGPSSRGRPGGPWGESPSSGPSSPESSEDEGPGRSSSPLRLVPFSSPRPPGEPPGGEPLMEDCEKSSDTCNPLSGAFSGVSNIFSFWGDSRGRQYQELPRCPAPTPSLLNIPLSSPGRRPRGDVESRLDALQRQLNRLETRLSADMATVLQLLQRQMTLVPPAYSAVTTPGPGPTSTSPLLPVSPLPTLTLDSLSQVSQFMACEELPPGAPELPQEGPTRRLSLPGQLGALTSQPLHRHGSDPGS

The assay has as its target human ether-à-go-go-related gene (hERG) potassium channel (human, UniProt Q12809). In words: primary screen, population patch clamp on CHO cells stably expressing hERG.
On to `CC(=O)Nc1ccc(NC(=O)c2cc(-c3ccc(C)c(C)c3O)n[nH]2)cc1`, for which the “hERG current change (%, negative = inhibition) at 1uM” value is 11.6%. Next, `Cc1ccccc1-c1nc(CS(=O)(=O)CC(=O)NCCCN2CCOCC2)c(C)o1`: 9.57%; `CCC(C)(C)NC(=O)C(c1ccc(OC)cc1)N(C(=O)CCC(=O)Nc1cc(C)on1)c1cccc(OC)c1` (stereo not shown): 13.8%; `Cc1cc(C(=O)CCC(=O)Nc2ccc(S(N)(=O)=O)cc2)c(C)s1`: 13.9%. With `O=C(Oc1ccc2c(c1)OCO2)c1cc2c(s1)CCC2` the figure was 13.2%. With `COC(=O)c1cc(-c2ccccc2)on1` the figure was -5.82%; with `Cc1ccc(S(=O)(=O)N2CCOC2CNC(=O)C(=O)NCCN2CCOCC2)cc1` (stereo not shown), 13.6%; with `COc1ccc(C(C(=O)NC2CCCC2)N(Cc2ccccc2)C(=O)c2nsc(Cl)c2Cl)cc1` (stereo not shown), 14.7%. In the case of `CC(OC(=O)c1ccco1)C(=O)Nc1ncc(Cl)cc1Cl` (stereo not shown), the “hERG current change (%, negative = inhibition) at 1uM” value was found to be 10.8%.

As to `CC(=O)Oc1ccc(-c2cccc(C(=O)N(C)c3ccc(O)cc3)c2)cc1`, the “hERG current change (%, negative = inhibition) at 1uM” value is -1.3%.

With `CCOC(=O)c1c(C)[nH]c(C(=O)OCC(=O)N(C)CC(=O)Nc2ccccc2Cl)c1C`, the “hERG current change (%, negative = inhibition) at 1uM” value was 4.78%. In the case of `COC(=O)c1ccc(NC(=O)COc2ccc([N+](=O)[O-])cc2)cc1`, the “hERG current change (%, negative = inhibition) at 1uM” value amounted to 13.8%. For the molecule `COc1ccc(Cl)cc1NC(=O)CN1CCC(n2nnc3ccccc32)CC1`, the “hERG current change (%, negative = inhibition) at 1uM” value was -8.77%. With `Cc1ccc(NC(=O)CNC(=O)c2ccc(C)o2)cc1` the figure was 9.4%; with `CC(C)(C)SCCNC(=O)c1cccc([N+](=O)[O-])c1`, 15.5%; with `Cc1ccc(C2=CC(=O)CC(C)(C)C2)cc1`, 5.52%.

`O=C(CN1CCCCC1)Nc1cccc(-n2cnnn2)c1`: the “hERG current change (%, negative = inhibition) at 1uM” value was 8.34%. With `O=Cc1cccc(Oc2ncccn2)c1` the figure was 9.51%; with `Nc1c(C(=O)NCCc2ccccc2)sc2nc(N3CCOCC3)c3c(c12)CCCC3`, 6.15%. On to `O=C(Nc1ccn(Cc2ccccc2)n1)c1ccc2c(c1)OCO2`, for which the “hERG current change (%, negative = inhibition) at 1uM” value turned out to be 3.52%. Next, `Cc1ccccc1NS(=O)(=O)c1cccc2nsnc12`: 16%. For `O=C1c2ccccc2C(=O)N1CNc1ccccc1`, the “hERG current change (%, negative = inhibition) at 1uM” value is 25.5%. With `COc1ccc(N2CCN(C(CNS(C)(=O)=O)c3ccco3)CC2)cc1` (stereo not shown) the figure was 9.6%; with `COc1ccc(CNC(=O)Cn2cccc2C(=O)c2ccccc2C)cc1`, 18.5%. With `CC(=NCCc1ccccc1)C1=C(O)CSC1=O` the figure was 1.53%.
